# Whole data set: some 33,000 sequences, median “E-score (dimensionless, -0.5 to 0.5)” near -0.058, cut for the highest 2% near 0.35. The list shows a part of the results.
# Test system: MvaT
# Test: PBM 8-mer E-score (mean of HK and ME arrays) (E-score (dimensionless, -0.5 to 0.5)); higher = stronger relative binding preference; most listed sequences are background and not binding sites
# Method in brief: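 Reported values are rank-based E-scores, taken as the mean of two universal arrays and parsed with a custom script. Each 8-mer score falls between -0.5 and 0.5. The arrays, ME and HK, were double-stranded 60-mers with a constant 25-mer primer region and a variable 35-mer region covering all 8-mers. They were probed, by an earlier protocol, with full-length P. aeruginosa MvaT carrying an N-terminal glutathione S-transferase fusion.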
row,Sequence,PBM 8-mer E-score
1,TCCACGCA,-0.208
2,ACGTGACG,-0.268
3,CTAGCAAC,-0.0993
4,GGACGCAC,-0.112
5,GTAGAATA,0.123
6,CAGCTCGG,-0.199
7,ACACGAAT,0.142
8,GTATCGGA,-0.056
9,ACTACCGA,0.0612
10,ATTCCGCG,0.132
11,AATATGAA,0.329
12,CTGCCTGA,-0.114
13,AAGCCAGA,-0.116
14,AACCTAAT,0.11
15,CCTCCTAG,-0.176
16,AGGACTGG,-0.0983
17,GTGACATA,0.203
18,CTCCAGAG,-0.211
19,GGTCGCGA,-0.238
20,AGGGTGCC,-0.245
21,ATAGTCAA,0.165
22,AATTCAAA,0.282
23,ACCAAGGG,-0.281
24,GGGTGTAA,0.122
25,CACAAAGG,-0.23

row,Sequence,PBM 8-mer E-score
1,AGCAGACA,-0.107
2,ACGGACAT,-0.0651
3,CCCACTGA,-0.146
4,CCACAGCC,-0.177
5,CCCAGTCC,-0.254
6,TCATCGGA,-0.0792
7,TCGGGGCA,-0.000178
8,ACATTTTC,0.2
9,GACCTCCC,-0.251
10,TAGGATAA,0.226
11,CGCTAACC,-0.123
12,ATCGTCAC,-0.196
13,GTGCTTAA,0.181
14,CCAGAAGG,-0.21
15,ACAACTAA,0.288
16,ACTGACAA,0.122
17,GCAAGTCA,-0.0193
18,GGACATGA,-0.188
19,ATCCTAAA,0.151
20,ACCTAATA,0.308
21,AAGACGCA,-0.14
22,AGTTTTAG,0.162
23,GTTACTTA,0.282
24,GCGCCCGA,-0.32
25,TAGCGACA,-0.11

row,Sequence,PBM 8-mer E-score
1,CACCAGAG,-0.114
2,AGCTCCAC,-0.0774
3,AAATAAGG,0.322
4,GGTATAAC,0.226
5,ATCGGCGC,-0.104
6,ACGCCTCA,-0.121
7,GCATTAAC,0.114
8,AGGAAGAC,-0.127
9,ACACGATG,-0.0978
10,AGATGCTC,-0.0886
11,CAGTGGCG,-0.222
12,GTAGGCCA,-0.262
13,CGTCCCAG,-0.236
14,ACGTGTTG,-0.0464
15,ACCGATGG,-0.195
16,AGCTATAC,0.144
17,GAAGTTGC,0.212
18,CGACATAA,0.117
19,CTCGCAGC,-0.11
20,GAGGGATC,-0.116
21,GAAGTTTA,0.304
22,AGTCGGCG,-0.257
23,ACTCGTGC,-0.117
24,TAAGCAGA,-0.0986
25,CCAACGCA,-0.0901

row,Sequence,PBM 8-mer E-score
1,CCCAACGA,-0.211
2,ACCTTAGT,0.0805
3,GACGACTC,-0.268
4,AGGACTCA,-0.199
5,AACCTGAC,-0.0368
6,AGACCTCA,-0.252
7,AGCTGAAA,0.00696
8,ATGGCTCA,-0.0273
9,AATGTCCT,-0.0592
10,AGGTACTC,-0.174
11,ACCTGCGG,-0.206
12,CACGATCA,-0.0135
13,CGCATGCC,-0.0174
14,AGCTGGAC,-0.285
15,AAAACTAC,0.191
16,GACTCTGC,-0.11
17,GGAATGTA,0.0473
18,CTACCTAA,-0.0191
19,AACAGGAT,0.121
20,GGGCCAAC,-0.115
21,CTTTGGCA,-0.138
22,AAAAGGAA,0.0508
23,ACCGGACC,-0.11
24,CCAATGTC,-0.027
25,CATGTGAA,-0.0666

row,Sequence,PBM 8-mer E-score
1,CATGGCTC,-0.0506
2,CCCAGGGC,-0.305
3,GGTCAAAA,-0.000251
4,GAAGACTA,0.0919
5,GATGGCCC,-0.31
6,GATAACAA,0.263
7,ACTAACGG,0.183
8,ATGGCGTA,-0.0349
9,GCTACTTA,0.142
10,GACTGAGA,-0.191
11,CTACTCCA,-0.00818
12,ACTCGCCT,-0.1
13,CATGGTGA,-0.154
14,GCGTCCCC,-0.142
15,AGGGTGGC,-0.217
16,CGCTCGAG,-0.0113
17,CTCCACGC,-0.183
18,CCCTAGTA,-0.0637
19,ACCGACCT,-0.197
20,GTTTGCGA,0.0744
21,CGCCGAAC,-0.073
22,TCACAAGA,0.0158
23,ATGCGTAC,-0.152
24,CGCAGCCA,-0.253
25,CTACCAGA,-0.141

row,Sequence,PBM 8-mer E-score
1,ACGACACA,-0.0679
2,ATAGCTCG,0.0113
3,GAGTGAGA,-0.0245
4,ATAGCCAT,-0.0374
5,AGTTGGGA,0.134
6,CTGATGAA,-0.0243
7,AACCTGTC,-0.231
8,ATTCGACC,-0.0894
9,CGCGTTCC,-0.173
10,TGTAATAA,0.399
11,GCCTATAC,-0.0364
12,AGATTCCT,0.00347
13,CCATTTGC,-0.0387
14,ACGAACCA,-0.253
15,CAAGTAAG,0.177
16,CAGCGAGG,-0.237
17,AAACGATT,0.0531
18,GCATCTGA,-0.223
19,TGGAACCA,-0.0394
20,GGTCACGA,-0.243
21,CGGCAGAA,-0.142
22,GCAGTGCC,-0.294
23,ATATGTCA,0.27
24,CAAGGTGA,-0.162
25,ATAACCGA,0.202

row,Sequence,PBM 8-mer E-score
1,CCAGTTAA,0.129
2,AATTCATA,0.227
3,GTTATCCA,0.122
4,CCATAGAC,0.00682
5,GACCGTCC,-0.259
6,AACACGTA,0.131
7,AACGTAGG,-0.0945
8,GAGCGCTA,-0.193
9,GCCAGGAA,-0.0628
10,AGTGACAT,0.0904
11,CCAAACAG,0.111
12,GAGTAGAC,-0.0971
13,CAAAGCTC,-0.204
14,GCTATTTA,0.252
15,GAAGCATA,0.00764
16,ATGACGGA,0.0245
17,AATCATCA,0.0409
18,CATGGAAA,0.0655
19,ACAGCAGG,-0.204
20,GAGTGGGA,-0.248
21,CCCATTAA,0.115
22,CCACGCGG,-0.298

# Reference: the supplement of paper PMC4466236
